Experimental data taken from the supplement of paper PMC3334620.
In all, about 33,000 sequences were measured (“E-score (-0.5 to 0.5)”: median about -0.041, highest 2% from about 0.37 on). The list shows a part of the results.

target: T1, Ecm22 (UniProt Q05958); assay: PBM E-score (8-mer binding enrichment) (E-score (-0.5 to 0.5)); higher = stronger / more preferred TF binding; most listed sequences are background and not binding sites; conditions: protein concentration: 200 nM; construct: GST-full length
T1 sequence: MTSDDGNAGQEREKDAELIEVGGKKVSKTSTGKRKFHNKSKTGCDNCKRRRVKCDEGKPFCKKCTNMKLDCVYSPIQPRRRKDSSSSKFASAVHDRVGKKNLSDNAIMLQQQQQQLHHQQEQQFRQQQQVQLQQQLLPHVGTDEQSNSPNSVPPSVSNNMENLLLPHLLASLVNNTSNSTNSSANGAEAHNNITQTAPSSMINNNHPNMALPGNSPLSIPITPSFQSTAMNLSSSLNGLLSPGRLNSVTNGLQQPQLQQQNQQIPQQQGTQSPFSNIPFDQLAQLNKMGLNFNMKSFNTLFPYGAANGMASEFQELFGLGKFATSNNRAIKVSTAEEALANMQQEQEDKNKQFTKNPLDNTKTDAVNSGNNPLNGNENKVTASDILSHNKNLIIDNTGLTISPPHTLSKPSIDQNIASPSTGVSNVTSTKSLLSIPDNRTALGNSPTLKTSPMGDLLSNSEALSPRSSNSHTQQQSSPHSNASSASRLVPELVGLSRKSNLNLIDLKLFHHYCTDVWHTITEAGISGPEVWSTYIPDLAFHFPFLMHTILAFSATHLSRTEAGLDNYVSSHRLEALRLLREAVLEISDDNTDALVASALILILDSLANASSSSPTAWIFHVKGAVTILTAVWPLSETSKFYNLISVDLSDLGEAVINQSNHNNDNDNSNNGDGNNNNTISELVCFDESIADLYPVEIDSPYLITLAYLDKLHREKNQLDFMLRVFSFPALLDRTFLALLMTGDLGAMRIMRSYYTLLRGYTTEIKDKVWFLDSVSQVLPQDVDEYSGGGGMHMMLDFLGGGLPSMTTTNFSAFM
How it was run: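 Universal all-10-mer Agilent arrays, fresh or stripped once, were converted to double-stranded form by primer extension. GST-tagged yeast transcription factors from PURExpress in vitro transcription/translation, full-length or DNA-binding domain only, were applied at about 100-200 nM and detected with fluorescent anti-GST. After masliner normalisation, the Universal PBM Analysis Suite scored each ungapped eight-base word together with its reverse complement by E-score.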

Sequence | PBM E-score
CCTCTGGA | -0.186
GCCTGTCA | -0.17
AGGCCTTC | -0.0493
CGACCTTC | 0.159
ACCTGAGT | -0.121
AGATACAG | -0.0199
GATCTCGA | 0.04
ACTGGCAG | -0.171
GCATGTGA | -0.0633
ATGGGTCG | 0.111
GACATGCA | -0.0288
GTCGCATA | 0.369
CGACAGCA | 0.105
CCTCACTA | -0.119
AAACAGAA | -0.129
ATCGGCCC | -0.12
TATTAGGA | 0.0943
AATTCCAA | -0.172
CGGCGTAA | 0.249
CTCATACA | -0.0369
CTTCCAGA | -0.0671
AGGATCCC | -0.031
GCTCCTAA | -0.217
GGGATAAA | -0.00211
ACACGCAG | 0.127

Sequence | PBM E-score
GCTCAGAA | -0.0447
GTCGGAAC | 0.217
GCAACTGA | 0.0723
GGTCAAAC | 0.19
CCCTCGCA | 0.243
CCTTTTGC | -0.0641
ACTTTAAG | -0.188
ACGCCTGC | -0.163
GCATCCGC | -0.18
ATGTATAC | 0.179
CATTGATC | 0.079
GAACTTTA | 0.0311
GACGAGCC | 0.0624
CGGGCCTA | -0.0109
CGGCCACA | -0.127
GCATGCTA | -0.0636
ACGACCCA | 0.33
AATGAACA | 0.0137
CAAAAGGC | -0.141
CATCCGGG | -0.0612
TTAAACAA | -0.156
CATTTTCC | -0.0876
GGCACGCC | -0.232
ATCCCGCC | 0.0153
ACCACAGG | -0.188

Sequence | PBM E-score
AGATAGAT | -0.143
GGCTATAA | -0.0859
ATCTCACG | -0.0833
ATCCTTAG | -0.0593
AACCTCAT | -0.183
GCAACAGA | -0.113
ATGAATGG | -0.174
ACGCGTAA | 0.128
CGCAATTC | 0.0663
AGGCTCAA | -0.37
ACACGGCG | -0.0862
CGGACCAG | 0.112
ACCCGGAT | 0.0534
CAAAGCGC | -0.14
ATTGGACC | -0.189
CTCACCAA | -0.0306
ACGTGCGA | 0.206
ATGGAATC | 0.127
GCTGGCAC | -0.325
CAGCACCC | -0.15
ATTTGTCC | -0.139
ATCAAGAG | -0.0407
GCCCTAAC | -0.27
AAGGACTG | -0.244
GTTCCCGA | 0.271

Sequence | PBM E-score
TAGCTATA | 0.0445
CTCATGGC | -0.0939
AACCGCAA | 0.0506
GTCTCTAA | -0.0743
ACACAGTC | 0.0479
CCGTCTAG | -0.0762
CCAAAGCC | -0.129
CTAATCAC | 0.0645
CTTTCTCC | -0.177
CTGATGCC | -0.127
ACTACATA | -0.238
AATTTTGG | -0.0778
AAATAACC | -0.212
CCAAAGAG | -0.223
GAGGTGAA | -0.00098
ACGAGTAC | 0.421
CCCACATC | -0.184
CAACCGTG | -0.13
AGAGGAGG | -0.172
AAGGAATA | 0.0891
CGGCGGGA | -0.107
CACGCCCA | -0.278
ATACGCCA | 0.286
GCATGTCA | -0.0571
CGTCGAAA | 0.187

Sequence | PBM E-score
GCTTCAAC | -0.141
GGCCGAAC | -0.0006
CCCTCCGG | -0.11
ACTAAGAC | -0.121
GTTCGCGA | 0.325
GAGCCGCC | -0.104
CTCGTCAA | -0.00128
CTGTCCCA | -0.11
AGTTATAC | 0.327
ACCGAGAC | 0.179
CCTCAGCC | -0.211
GGTCAACC | -0.0213
GAGAGCAA | -0.0748
GAATCGTA | 0.38
AGCTTTAA | 0.012
GCTAAACC | 0.0474
AGATTACA | 0.0505
AATCCCGC | -0.00265
CCAATCTA | -0.107
AGTAAGTC | -0.0599
CTATCTAC | 0.0159
GCCTGACA | -0.277
TGGAGAAA | -0.203
TCTGTGCA | -0.237
TACCAACA | -0.0136

Sequence | PBM E-score
AAGCAGGT | -0.29
CGGCATCC | 0.0319
ACCGGAGC | -0.118
CGAATACG | 0.362
CAACCTCG | 0.195
CGTATACC | 0.469
TAGAGGGA | -0.265
CTGTAAAC | -0.0609
CTTCCCTC | -0.02
ACCTCCCT | -0.129
ACGCCACA | -0.00205
TGGCCAAA | -0.173
ACCACCTC | -0.0744
GGAGGGTA | -0.242
CCCTACAA | -0.0348
CGCCAGTA | -0.0113
AAGGTCCG | 0.0272
GATCGTAC | 0.454
GATTCGCC | 0.0637
CAGTTTCC | -0.0573
ACATCTCT | -0.24
AACATTTG | -0.079
CTAGCTTC | -0.073
AGTCGTCA | -0.236
GGCAAAAA | -0.0775

Sequence | PBM E-score
AAAACGCG | 0.213
TGATAAAA | 0.0339
GATTTCAA | -0.148
GGCTACCA | -0.2
AGCCACCT | -0.202
ATAGGACG | -0.105
ATGATTAG | -0.0405
CGTTACGA | 0.403
GGTTCTGA | 0.0927
GCATGCGA | 0.25
GCCGTGAC | -0.168
CCCCTCCC | -0.196
AATCAAGA | -0.0519
TAAAAGTA | -0.188
ATGGCCCA | -0.0849
ACTGACCG | 0.113
CATCTTGA | -0.108
ATCTTGAG | -0.165
CAGGGCGA | 0.0473
GGGACGAA | -0.0942
CGTGACAA | -0.0343
CTTCCCGA | 0.122
